# From PubChem BioAssay AID1347073 (National Center for Advancing Translational Sciences (NCATS), 2019)
# Among all 45,000 compounds or so, about 200 (0.44%) were called active. Roughly 7% stayed inconclusive and do not appear here. The call rests on the fitted dose curve; in most records, active means well fitted activation curve with a large enough effect; inconclusive means small, poorly fitted or top-dose-only effect; inactive means no such curve, though single readings can be large or run the other way. This is one part of the list. Peptide text beside a SMILES is read from it. * marks the point of attachment. Boc = CC(C)(C)OC(=O)*; Bn = c1ccc(C*)cc1
# Test: qHTS of TDP-43 Inhibitors: NCGC Sytravon Library Screen; further: 0% is about no effect; nearly all actives have a fitted effect of over 55% in size
# Conditions: yeast TDP-43 toxicity rescue, BacTiter-Glo growth, 24 h; series mostly up to 46.1 µM; growth rescue (activation): at the top concentration
# Summary of the method: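 TDP-43-expressing yeast, pregrown in raffinose, seeded at OD600 0.02 in galactose medium with compound for 24 hr at 30 deg C. Growth read by BacTiter-Glo luminescence, so rescue of toxicity appears as activation.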
row,SMILES,growth rescue (activation)
1,Cc1cc(C)nc(N2CCC(C(=O)Nc3ccc4c(c3)OCCO4)CC2)n1,inactive: 1.79%
2,Cc1ccc(SCc2ccc(C(=O)Nc3cccnc3)cc2)cc1,inactive: 26.1%
3,Brc1ccc(-c2csc(N/N=C/c3ccco3)n2)cc1,inactive: 0.195%
4,COc1ccc(OC)c(NC(=O)CN(C)CC(=O)Nc2ccccc2Cl)c1,inactive: 18.5%
5,CN(C)C(CNC(=O)c1cccc(C(F)(F)F)c1)c1ccco1 (stereo unspecified),inactive: 4.39%
6,Cc1ncc(S(=O)(=O)c2ccc(Cl)cc2)c(-c2ccccc2)n1,inactive: 3.98%
7,Cc1c(Cl)cccc1NCC(=O)NN=C1CCCC1,inactive: 4.36%
8,Cc1cccn2c(CN3CCCN(C=O)CC3)c(C(=O)N(C)CCc3ccccc3)nc12,inactive: -12.9%
9,COc1ccc(OCCSc2nc(C)c(Cc3ccccc3)c(=O)[nH]2)cc1,inactive: 8.3%
10,CC(=O)NCCNc1nc2cc(-c3cccc(C(F)(F)F)c3)sc2c(=O)n1C,inactive: 14.1%
11,CCCCCCCCCCOC(=O)Cn1c(COc2cccc(C)c2)[n+](C)c2ccccc21,inactive: -50.7%
12,CCN(CC)C(=S)SCc1csc(CC(=O)Nc2ccccc2C)n1,inactive: 26.9%
13,OC(c1ccc(Cl)c(Cl)c1)c1ncc(-c2ccccc2Cl)[nH]1 (stereo unspecified),inactive: 10.7%
14,O=C(Nc1ccccc1)c1ccc2snnc2c1,inactive: 12.9%
15,CCC(C)C(NC(=O)c1ccccc1NC(=O)c1ccco1)C(=O)NC1CCCCC1 (stereo unspecified),inactive: 22.3%
16,Cc1ccc(/C(O)=C2\C(=O)C(=O)N(CC(C)O)C2c2ccc(N(C)C)cc2)cc1 (stereo unspecified),inactive: 19%
17,CC(=O)Nc1cc(-c2ccccc2N(C)C)cn2c(-c3ccc(S(C)(=O)=O)cc3)cnc12,inactive: 6.4%
18,Cc1ccc(OCCSc2nc3ncnc(N)c3[nH]2)cc1,inactive: 2.97%
19,O=C(NC1CC1)c1cccc(-c2cncc3nccn23)c1,inactive: -20.2%
20,Cc1cccc(NC(=S)NCc2ccco2)c1C,inactive: -16.1%
21,COC(=O)c1cc(C)nc2c1C(=O)C(=O)C=C2N1CCOCC1,inactive: -23.7%
22,O=C(NCC(=O)N(c1ccc(F)cc1)C(C(=O)NC1CCCCC1)c1ccncc1)c1ccco1 (stereo unspecified),inactive: 3.36%

row,SMILES,growth rescue (activation)
1,Cc1ccc(NC(=O)COC(=O)CNC(=O)c2ccc3ccccc3c2)c([N+](=O)[O-])c1,inactive: -14.5%
2,COc1cccc(N2C(=O)C3CCCN3C2=S)c1 (stereo unspecified),inactive: -31.3%
3,CC1(C(=O)NS(=O)(=O)c2ccc(F)cc2F)CCN1C(=O)Cc1cccc2ccccc12 (stereo unspecified),inactive: 3.56%
4,O=C(NCc1ccccc1Cl)c1cc2c(s1)-c1ccccc1SC2,inactive: 4.11%
5,COc1ccc(C(=O)Nc2nnc(-c3ccc(F)cc3)s2)c(OC)c1,inactive: -20.9%
6,S=c1[nH]nc(-c2ccc(Br)cc2)n1Cc1ccccc1,inactive: 19.5%
7,CN(C)c1ccc(CNC(=O)C2(C)Cc3c(-c4ccc(N(C)C)cc4)ccnc3O2)cc1 (stereo unspecified),inactive: 3.91%
8,CC(C)CC(NC(=O)C(NC(=O)C(Cc1ccc(OCc2ccccc2)cc1)NC(=O)OC(C)(C)C)C(C)C)C(N)=O (stereo not drawn) (Boc-Tyr(Bn)-Val-Leu-NH2; configuration not given here),inactive: 6.08%
9,CC(C)(C)c1ccc(C(=O)NCCC(=O)N2CCN(c3ncccn3)CC2)cc1,inactive: 25%
10,COc1ccccc1/C=C/C=N/NC(=O)c1ccc(=O)n(C)c1,inactive: 0.683%
11,Cc1cccc(C(=O)NCCCNC(=O)c2ccccn2)c1,inactive: 10.2%
12,CCN(C(=O)COC(=O)c1ccc(Cl)c(S(=O)(=O)N2CCCCC2)c1)C1CCS(=O)(=O)C1 (stereo unspecified),inactive: 9.97%
13,O=C(NCc1cccc(Cl)c1)c1ccc2nc[nH]c2c1,inactive: 12.3%
14,COc1cccc(N2CCN(C(=O)C3CCN(S(=O)(=O)c4cccs4)CC3)CC2)c1,inactive: 15%
15,Cc1ccc(O)c(NC(=O)c2noc3c2CCCCC3)c1,inactive: 20.2%
16,COc1ccccc1C(=O)OCCCN=C1NS(=O)(=O)c2ccccc21,inactive: 14.7%
17,CNc1cc(C(=O)Nc2cccc(OCc3ccccc3)c2)ncn1,inactive: 7.96%
18,Cc1c(C(=O)O)cccc1-n1c(C)cc(/C=C(/C#N)C(=O)NCc2ccccc2)c1C,inactive: -12.2%
19,COc1ccc(OC)c(NC(=O)C2(C)CCN2CCOc2ccccc2)c1 (stereo unspecified),inactive: 8.76%
20,CC(=O)c1sc(N/N=C2\CC3CC2C(C)C3(C)C)nc1C (stereo unspecified),inactive: 15.6%
21,COc1ccc(C)cc1C(=O)C1CC(C(=O)O)C(C)(C)C1C (stereo unspecified),inactive: 13.1%
22,COc1ccc(NC(=O)CSc2nc(O)cc(=O)n2-c2ccc(OC)cc2)cc1,inactive: 0.201%

row,SMILES,growth rescue (activation)
1,COc1cc2c(cc1OC)C(C)N(C(=O)[C@@H](NC(=O)c1ccccc1)C(C)C)CC2 (stereo partly specified),inactive: -26.6%
2,COC(=O)c1c(NC(=O)C2CC(=O)NN2Cc2ccccc2)sc(C)c1C (stereo unspecified),inactive: 9.69%
3,Cc1ccc(C)c(CN2C(=O)c3ccccc3S(=O)(=O)c3ccc(C(=O)N4CCCC4)cc32)c1,inactive: 8.34%
4,COc1ccc(N2CCN(C(=O)C(NC(=O)c3c(F)cccc3F)C(C)C)CC2)cc1 (stereo unspecified),inactive: 9.39%
5,COc1cc(OC)cc(C(=O)Nc2cc(C)nn2-c2ccccc2)c1,inactive: 7.59%
6,CCC(C(=O)NC1CCCC1)n1c2ccccc2c2nc(=O)cc(C)n21 (stereo unspecified),inactive: -3.31%
7,Cc1[nH]c2ccccc2c1C(=O)COC(=O)c1ccccc1O,inactive: -0.542%
8,O=C(N/N=C/c1cc(Br)cc(Br)c1O)c1cccc(S(=O)(=O)N2CCOCC2)c1,inactive: 14.1%
9,C/C(=N\NC(=S)Nc1ccc(C)cc1)c1cc2ccccc2o1,inactive: 34%
10,O=C(NCCN1CCCCCC1)C1CCCN1S(=O)(=O)c1cccc2nsnc12 (stereo unspecified),inactive: 39%
11,CC(C(=O)N1CCCCC1)n1ncn2cccc2c1=O (stereo unspecified),inactive: 16.3%
12,O=C(NCc1ccco1)/C(=C\c1ccccc1)NC(=O)c1ccccc1,inactive: 8.5%
13,O=C(NN1C(=O)c2ccccc2NC1c1ccc([N+](=O)[O-])o1)c1ccc([N+](=O)[O-])cc1 (stereo unspecified),inactive: 7.65%
14,Cc1ccc(CSCCC(=O)NCCC2=CCCCC2)cc1,inactive: -11.4%
15,O=C(COC(=O)c1ccccc1)NC1CCCC1,inactive: 0.0791%
16,O=C(NCc1cccc(Br)c1)C1CCN(C(=O)c2sccc2-n2cccc2)CC1,inactive: 13.1%
17,COc1ccc(C(=O)Nc2ccc(NC(=O)c3cccc(OC)c3)cn2)cc1,inactive: 12.3%
18,CN1CCN(CC(=O)Nc2cc(N3CCOCC3)ccc2[N+](=O)[O-])CC1,inactive: -2.92%
19,CC(C)S(=O)(=O)NC(=O)C1(C)CCN1C(=O)Cc1ccccc1 (stereo unspecified),inactive: -0.819%
20,CCOc1ccc(N=C(NN)c2ccc3ccccc3n2)cc1,inactive: -16.2%
21,COc1ccccc1N1CCN(C(=O)Cn2nc(C(F)(F)F)c3c2CCC3)CC1,inactive: 6.05%
22,OCCCc1nc2ccccc2[nH]1,inactive: 5.57%
